# Experimental data taken from publication PMC9911399, “Two distinct binding modes provide the RNA-binding protein RbFox with extraordinary sequence specificity”.
# Numbering of substitutions follows the chain as printed; changes in the protein carry UniProt numbers. This is one part of the list.
# B1: AUGCAAG (DNA:RNA)
# RNA: GGGAGACCGGAAUUCAGAUUGUCCAUGCAAGUUAAAUCCCGUCGUAGCCACCA
# DNA 1: CAATCTGAATTCCGGTCTCCC
# DNA 2: TGGTGGCTACGACGGGATT
# B2: AGGAACA (DNA:RNA)
# RNA: B1 RNA with U26G, C28A, A30C, G31A
# DNA 1: CAATCTGAATTCCGGTCTCCC
# DNA 2: TGGTGGCTACGACGGGATT
# B3: GGGUGGA (DNA:RNA)
# RNA: B1 RNA with A25G, U26G, C28U, A29G, A30G, G31A
# DNA 1: CAATCTGAATTCCGGTCTCCC
# DNA 2: TGGTGGCTACGACGGGATT
# B4: UUCAGUG (DNA:RNA)
# RNA: B1 RNA with A25U, G27C, C28A, A29G, A30U
# DNA 1: CAATCTGAATTCCGGTCTCCC
# DNA 2: TGGTGGCTACGACGGGATT
# B5: GAAACUA (DNA:RNA)
# RNA: GGGAGACCGGAAUUCAGAUUGUCCGAAACUAUUAAAUCCCGUCGUAGCCACCA
# DNA 1: CAATCTGAATTCCGGTCTCCC
# DNA 2: TGGTGGCTACGACGGGATT
# B6: CUUAUGA (DNA:RNA)
# RNA: B5 RNA with G25C, A26U, A27U, C29U, U30G
# DNA 1: CAATCTGAATTCCGGTCTCCC
# DNA 2: TGGTGGCTACGACGGGATT
# B7: CGAGCAA (DNA:RNA)
# RNA: B5 RNA with G25C, A26G, A28G, U30A
# DNA 1: CAATCTGAATTCCGGTCTCCC
# DNA 2: TGGTGGCTACGACGGGATT
# B8: CAGGAUC (DNA:RNA)
# RNA: B1 RNA with A25C, U26A, C28G, A30U, G31C
# DNA 1: CAATCTGAATTCCGGTCTCCC
# DNA 2: TGGTGGCTACGACGGGATT
# B9: GUUAUCC (DNA:RNA)
# RNA: B5 RNA with A26U, A27U, C29U, U30C, A31C
# DNA 1: CAATCTGAATTCCGGTCTCCC
# DNA 2: TGGTGGCTACGACGGGATT
# Biological target: T1, RBFOX1 RRM (Homo sapiens, UniProt Q9NWB1 109-208)
# T1 sequence: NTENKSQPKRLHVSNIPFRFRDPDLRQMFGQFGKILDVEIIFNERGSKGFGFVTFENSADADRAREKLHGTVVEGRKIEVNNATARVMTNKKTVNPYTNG
# Assay: EMSA; HiTS-Eq, 1 nM pool, 10 min; buffer printed only for the single-RNA assays: 10 mM Tris pH 7.5, 150 mM NaCl, 3.4 mM EDTA, 0.001% NP-40, 30 C
# Settings: tags: His6 N-terminal (pET28a); label: 5' 32P
# Outline: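 A pool of RNA with 7 randomized nucleotides, 5′-radiolabelled and with DNA-annealed flanks, was equilibrated at 1 nM for 10 min in 50 µL with purified RbFox RRM, wild type or mutant, across increasing protein concentrations. Free RNA was separated by 8% native PAGE, excised, reverse-transcribed, barcoded by PCR and sequenced. Relative association constants were obtained from read-count changes of each RNA species versus the control reaction and normalised to the cognate motif.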
row,Binder,binding signal
1,B1,0.0139 KA relative to UGCAUGU
2,B2,0.00792 KA relative to UGCAUGU
3,B3,0.0176 KA relative to UGCAUGU
4,B4,0.0164 KA relative to UGCAUGU
5,B5,0.00411 KA relative to UGCAUGU
6,B6,0.0108 KA relative to UGCAUGU
7,B7,0.00594 KA relative to UGCAUGU
8,B8,0.0113 KA relative to UGCAUGU
9,B9,0.0109 KA relative to UGCAUGU
